Values quoted from earlier work as cited in patent US20120159656A1, “COMPOSITIONS AND METHODS FOR […] DEFECTS” (Galenea Corp., priority 2009, published 2012).

Test system: gamma oscillation power in various brain regions
Conditions: various brain regions of rodents; cited from earlier work

SMILES: c1ccc(C2(N3CCCCC3)CCCCC2)cc1 [PCP, phencyclidine]
- gamma oscillation power in response to NMDA-R antagonists: Increases in gamma oscillation power
